Assay results: the supplement of paper PMC4604168 (melanoma cell lines)
This is one part of the list. Single values are uncertain, as repeats are few or missing.

These compounds were tested on LOXIMVI (assay: cell count relative to DMSO control; melanoma cells; higher = more viable cells). Conditions: library dose: low library concentration; 72 h.
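Also: cell number obtained by counting DAPI-stained nuclei in high-throughput microscope images with image analysis software, screen run in 1,536-well plates.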

Row | Structure (SMILES) | cell count [%]
1 | NC1(c2ccc(-c3nc4ccn5c(=O)[nH]nc5c4cc3-c3ccccc3)cc2)CCC1 + COc1ccc(-c2ccc3c(N4CCOCC4)nc(N4C[C@@H](C)O[C@@H](C)C4)nc3n2)cc1CO [KU0063794] (first compound 0.4 µM, partner dose 0.02 µM) | 92.8
2 | CN(c1ncccc1CNc1nc(Nc2ccc3c(c2)CC(=O)N3)ncc1C(F)(F)F)S(C)(=O)=O + O=C1NC(=O)/C(=C/c2ccc(-c3ccc(F)cc3O)o2)S1 [AS252424] (first compound 0.08 µM, partner dose 1 µM) | 84.5
3 | CS(=O)(=O)c1ccc(C(=O)Nc2ccc(Cl)c(-c3ccccn3)c2)c(Cl)c1 [vismodegib] + COc1ccc(COc2ccc(Cc3cnc(N)nc3N)cc2OC)cc1 [GW2580] (first compound 1 µM, partner dose 1 µM) | 84.7
4 | CS(=O)(=O)c1ccc(C(=O)Nc2ccc(Cl)c(-c3ccccn3)c2)c(Cl)c1 [vismodegib] + COc1ccc2c(c1)CCC1C2CCC2(C)C(NCCCCCCN3C(=O)C=CC3=O)CCC12 [U73122] (first compound 1 µM, partner dose 0.4 µM) | 109
5 | NC1(c2ccc(-c3nc4ccn5c(=O)[nH]nc5c4cc3-c3ccccc3)cc2)CCC1 + Cn1cc(/C=C2\C(=O)Nc3cccnc32)c2ccccc21 [GW441756] (first compound 0.4 µM, partner dose 0.4 µM) | 79.4
6 | C=C(c1ccc(C(=O)O)cc1)c1cc2c(cc1C)C(C)(C)CCC2(C)C [Bexarotene] + O=C(Nc1ccccc1)c1cc([N+](=O)[O-])ccc1Cl [GW9662] (first compound 2 µM, partner dose 2 µM) | 136
7 | NC1(c2ccc(-c3nc4ccn5c(=O)[nH]nc5c4cc3-c3ccccc3)cc2)CCC1 + COC(=O)c1sccc1S(=O)(=O)Nc1ccc(Nc2ccccc2)cc1OC [GSK0660] (first compound 0.4 µM, partner dose 1 µM) | 103
8 | CCCS(=O)(=O)Nc1ccc(F)c(C(=O)c2c[nH]c3ncc(Cl)cc23)c1F + O=C(O)C(=O)Nc1sc2c(c1C(=O)O)CCNC2 [TCS401] (first compound 0.08 µM, partner dose 1.66667 µM) | 103
9 | CS(=O)(=O)c1ccc(C(=O)Nc2ccc(Cl)c(-c3ccccn3)c2)c(Cl)c1 [vismodegib] + O=C(O)C(=O)Nc1sc2c(c1C(=O)O)CCNC2 [TCS401] (first compound 1 µM, partner dose 1.66667 µM) | 76
10 | C=C(c1ccc(C(=O)O)cc1)c1cc2c(cc1C)C(C)(C)CCC2(C)C [Bexarotene] + N#Cc1c(O)c2c(-c3ccc(-c4ccccc4O)cc3)csc2[nH]c1=O [A769662] (first compound 2 µM, partner dose 2 µM) | 130
11 | C=C(c1ccc(C(=O)O)cc1)c1cc2c(cc1C)C(C)(C)CCC2(C)C [Bexarotene] + COc1ccc(-c2ccc3c(N4CCOCC4)nc(N4C[C@@H](C)O[C@@H](C)C4)nc3n2)cc1CO [KU0063794] (first compound 2 µM, partner dose 0.02 µM) | 109
12 | CCCS(=O)(=O)Nc1ccc(F)c(C(=O)c2c[nH]c3ncc(Cl)cc23)c1F + COc1ccc(COc2ccc(Cc3cnc(N)nc3N)cc2OC)cc1 [GW2580] (first compound 0.08 µM, partner dose 1 µM) | 82

These compounds were tested on MEL-HO in the same assay as above. Conditions: library dose: low library concentration; 72 h.

Row | Structure (SMILES) | cell count [%]
13 | C=C(c1ccc(C(=O)O)cc1)c1cc2c(cc1C)C(C)(C)CCC2(C)C [Bexarotene] + Cn1cc(/C=C2\C(=O)Nc3cccnc32)c2ccccc21 [GW441756] (first compound 2 µM, partner dose 0.4 µM) | 81.3
14 | NC1(c2ccc(-c3nc4ccn5c(=O)[nH]nc5c4cc3-c3ccccc3)cc2)CCC1 + CC(C)CCN1c2nc(Nc3cc(F)c(O)c(F)c3)ncc2N(C)C(=O)C1C [BID1870] (first compound 0.4 µM, partner dose 0.2 µM) | 83.6
15 | CS(=O)(=O)c1ccc(C(=O)Nc2ccc(Cl)c(-c3ccccn3)c2)c(Cl)c1 [vismodegib] + N#Cc1c(O)c2c(-c3ccc(-c4ccccc4O)cc3)csc2[nH]c1=O [A769662] (first compound 1 µM, partner dose 2 µM) | 96.4
16 | CN(c1ncccc1CNc1nc(Nc2ccc3c(c2)CC(=O)N3)ncc1C(F)(F)F)S(C)(=O)=O + COC(=O)c1sccc1S(=O)(=O)Nc1ccc(Nc2ccccc2)cc1OC [GSK0660] (first compound 0.08 µM, partner dose 1 µM) | 89.6
17 | CCCS(=O)(=O)Nc1ccc(F)c(C(=O)c2c[nH]c3ncc(Cl)cc23)c1F + COC(=O)c1sccc1S(=O)(=O)Nc1ccc(Nc2ccccc2)cc1OC [GSK0660] (first compound 0.08 µM, partner dose 1 µM) | 88.8
18 | NC1(c2ccc(-c3nc4ccn5c(=O)[nH]nc5c4cc3-c3ccccc3)cc2)CCC1 + COc1cc(N2CCC(N3CCN(C)CC3)CC2)ccc1Nc1ncc(Cl)c(Nc2ccccc2S(=O)(=O)C(C)C)n1 [NVP-TAE684] (first compound 0.4 µM, partner dose 0.08 µM) | 92.3
19 | CS(=O)(=O)c1ccc(C(=O)Nc2ccc(Cl)c(-c3ccccn3)c2)c(Cl)c1 [vismodegib] + CCN(CC)CCCCNc1ncc2cc(-c3cc(OC)cc(OC)c3)c(NC(=O)NC(C)(C)C)nc2n1 [PD173074] (first compound 1 µM, partner dose 0.1 µM) | 103
20 | CCCS(=O)(=O)Nc1ccc(F)c(C(=O)c2c[nH]c3ncc(Cl)cc23)c1F + N#Cc1c(O)c2c(-c3ccc(-c4ccccc4O)cc3)csc2[nH]c1=O [A769662] (first compound 0.08 µM, partner dose 2 µM) | 94.9
21 | CCCS(=O)(=O)Nc1ccc(F)c(C(=O)c2c[nH]c3ncc(Cl)cc23)c1F + COc1ccc2c(c1)CCC1C2CCC2(C)C(NCCCCCCN3C(=O)C=CC3=O)CCC12 [U73122] (first compound 0.08 µM, partner dose 0.4 µM) | 88.7
22 | CN(c1ncccc1CNc1nc(Nc2ccc3c(c2)CC(=O)N3)ncc1C(F)(F)F)S(C)(=O)=O + O=S(=O)(c1ccccc1)N(CC(F)(F)F)c1ccc(C(O)(C(F)(F)F)C(F)(F)F)cc1 [T0901317] (first compound 0.08 µM, partner dose 1.4 µM) | 101
23 | CCCS(=O)(=O)Nc1ccc(F)c(C(=O)c2c[nH]c3ncc(Cl)cc23)c1F + O=C1NC(=O)/C(=C/c2ccc(-c3ccc(F)cc3O)o2)S1 [AS252424] (first compound 0.08 µM, partner dose 1 µM) | 73.1
24 | NC1(c2ccc(-c3nc4ccn5c(=O)[nH]nc5c4cc3-c3ccccc3)cc2)CCC1 + COc1cc2ncnc(Nc3ccc(Oc4ccccc4)cc3)c2cc1OC [SrcI1] (first compound 0.4 µM, partner dose 2 µM) | 74.3
25 | C=C(c1ccc(C(=O)O)cc1)c1cc2c(cc1C)C(C)(C)CCC2(C)C [Bexarotene] + COc1cc2ncnc(Nc3ccc(Oc4ccccc4)cc3)c2cc1OC [SrcI1] (first compound 2 µM, partner dose 2 µM) | 107
26 | C=C(c1ccc(C(=O)O)cc1)c1cc2c(cc1C)C(C)(C)CCC2(C)C [Bexarotene] + O=S(=O)(c1ccccc1)N(CC(F)(F)F)c1ccc(C(O)(C(F)(F)F)C(F)(F)F)cc1 [T0901317] (first compound 2 µM, partner dose 1.4 µM) | 83.9
27 | C=C(c1ccc(C(=O)O)cc1)c1cc2c(cc1C)C(C)(C)CCC2(C)C [Bexarotene] + Oc1cc(-c2nc(-c3ccccc3)[nH]c2-c2ccncc2)ccc1Cl [L779450] (first compound 2 µM, partner dose 0.2 µM) | 84.1
28 | CN(c1ncccc1CNc1nc(Nc2ccc3c(c2)CC(=O)N3)ncc1C(F)(F)F)S(C)(=O)=O + COc1ccc2c(c1)CCC1C2CCC2(C)C(NCCCCCCN3C(=O)C=CC3=O)CCC12 [U73122] (first compound 0.08 µM, partner dose 0.4 µM) | 84.8
29 | CCCS(=O)(=O)Nc1ccc(F)c(C(=O)c2c[nH]c3ncc(Cl)cc23)c1F + CCCCCCCCCCCC1=C(O)C(=O)C=C(O)C1=O [Embelin] (first compound 0.08 µM, partner dose 1.2 µM) | 97.3
30 | CN(c1ncccc1CNc1nc(Nc2ccc3c(c2)CC(=O)N3)ncc1C(F)(F)F)S(C)(=O)=O + Oc1nc(-c2ccc(C(F)(F)F)cc2)nc2c1CSCC2 [XAV939] (first compound 0.08 µM, partner dose 2 µM) | 113
31 | NC1(c2ccc(-c3nc4ccn5c(=O)[nH]nc5c4cc3-c3ccccc3)cc2)CCC1 + COc1ccc2c(c1)CCC1C2CCC2(C)C(NCCCCCCN3C(=O)C=CC3=O)CCC12 [U73122] (first compound 0.4 µM, partner dose 0.4 µM) | 87.3
32 | C=C(c1ccc(C(=O)O)cc1)c1cc2c(cc1C)C(C)(C)CCC2(C)C [Bexarotene] + O=C1NC(=O)/C(=C/c2ccc(-c3ccc(F)cc3O)o2)S1 [AS252424] (first compound 2 µM, partner dose 1 µM) | 102
33 | CN(c1ncccc1CNc1nc(Nc2ccc3c(c2)CC(=O)N3)ncc1C(F)(F)F)S(C)(=O)=O + COc1cc(N2CCC(N3CCN(C)CC3)CC2)ccc1Nc1ncc(Cl)c(Nc2ccccc2S(=O)(=O)C(C)C)n1 [NVP-TAE684] (first compound 0.08 µM, partner dose 0.08 µM) | 94.6
